{"source": "paper PMC4336329", "about": "(PLoS ONE, 2015)", "note": "About 14,000 (4.5%) of roughly 310,000 compounds showed an effect of 50% or more. Effects have a minus sign here. This is one part of the list.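 Further: peak tail current of the secondary pulse compared with the same well before compound.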", "data": [{"molecular_target": "human ether-à-go-go-related gene (hERG) potassium channel (human, UniProt Q12809)", "sequence (Q12809 whole entry, looked up)": "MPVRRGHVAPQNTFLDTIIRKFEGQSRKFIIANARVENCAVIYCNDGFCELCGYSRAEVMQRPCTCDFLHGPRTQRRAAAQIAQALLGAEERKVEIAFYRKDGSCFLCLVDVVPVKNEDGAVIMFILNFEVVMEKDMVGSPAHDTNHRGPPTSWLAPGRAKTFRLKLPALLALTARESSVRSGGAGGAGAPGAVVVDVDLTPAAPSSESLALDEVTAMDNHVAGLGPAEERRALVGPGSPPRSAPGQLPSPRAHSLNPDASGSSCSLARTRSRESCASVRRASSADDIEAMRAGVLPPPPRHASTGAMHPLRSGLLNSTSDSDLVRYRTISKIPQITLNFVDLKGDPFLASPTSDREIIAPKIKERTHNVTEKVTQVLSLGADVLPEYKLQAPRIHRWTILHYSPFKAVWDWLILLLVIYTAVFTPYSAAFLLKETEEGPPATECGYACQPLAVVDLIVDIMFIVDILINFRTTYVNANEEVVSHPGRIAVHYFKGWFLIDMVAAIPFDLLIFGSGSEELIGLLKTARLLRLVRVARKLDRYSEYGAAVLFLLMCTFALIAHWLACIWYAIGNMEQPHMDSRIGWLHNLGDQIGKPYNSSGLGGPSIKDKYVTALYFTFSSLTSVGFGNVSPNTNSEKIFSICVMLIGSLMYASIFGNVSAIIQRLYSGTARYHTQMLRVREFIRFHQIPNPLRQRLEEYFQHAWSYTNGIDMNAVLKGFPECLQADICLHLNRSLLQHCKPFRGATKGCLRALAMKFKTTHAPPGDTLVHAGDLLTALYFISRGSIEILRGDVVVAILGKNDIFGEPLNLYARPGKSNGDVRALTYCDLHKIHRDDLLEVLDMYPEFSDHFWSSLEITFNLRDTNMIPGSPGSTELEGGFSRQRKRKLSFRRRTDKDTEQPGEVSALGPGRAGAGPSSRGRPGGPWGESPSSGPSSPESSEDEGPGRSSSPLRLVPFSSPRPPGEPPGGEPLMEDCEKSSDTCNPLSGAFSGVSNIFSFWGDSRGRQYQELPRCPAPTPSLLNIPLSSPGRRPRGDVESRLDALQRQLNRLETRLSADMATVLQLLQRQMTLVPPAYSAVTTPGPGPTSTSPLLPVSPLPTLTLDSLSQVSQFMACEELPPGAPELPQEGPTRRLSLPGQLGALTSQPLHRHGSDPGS", "assay": "primary screen, population patch clamp on CHO cells stably expressing hERG", "units": {"hERG current change (%, negative = inhibition) at 10uM": "%"}, "values": [{"smiles": "CCCOC(=O)c1ccc(NS(=O)(=O)c2cccs2)cc1", "hERG current change (%, negative = inhibition) at 10uM": -6.88}, {"smiles": "CCn1cc(/C=C(/C#N)S(=O)(=O)c2ccccc2)cn1", "hERG current change (%, negative = inhibition) at 10uM": -8.15}, {"smiles": "CCn1c2ccccc2c2cc(CN3CCN(C(=O)c4ccco4)CC3)ccc21", "hERG current change (%, negative = inhibition) at 10uM": -3.06}, {"smiles": "O=C(c1cn(-c2ccccc2)nc1-c1cccnc1)N1CCN(S(=O)(=O)c2ccccc2F)CC1", "hERG current change (%, negative = inhibition) at 10uM": -70.5}, {"smiles": "CC(=O)N1CCN(CC(=O)Nc2cc(F)ccc2C)CC1", "hERG current change (%, negative = inhibition) at 10uM": -5.95}, {"smiles": "O=C(CSc1nnc2ccccn12)NNC(=O)c1ccc(F)cc1", "hERG current change (%, negative = inhibition) at 10uM": 37.3}, {"smiles": "CC(=O)NCc1ccc(S(=O)(=O)NC(C(=O)O)C(C)C)cc1", "note": "(stereo not shown)", "hERG current change (%, negative = inhibition) at 10uM": 3.41}, {"smiles": "Cc1cc(C)cc(NC(=O)C2CCN(c3nccs3)CC2)c1", "hERG current change (%, negative = inhibition) at 10uM": -0.998}, {"smiles": "COc1ccccc1NC(=O)Cc1noc(CSc2n[nH]c(N)n2)n1", "hERG current change (%, negative = inhibition) at 10uM": 30.5}, {"smiles": "Cc1ccnc(NS(=O)(=O)c2cccc([N+](=O)[O-])c2)c1", "hERG current change (%, negative = inhibition) at 10uM": 0.0315}, {"smiles": "CCOC(=O)N1CCN(C(=O)C(=O)Nc2sc3c(c2C(N)=O)CC(C)(C)OC3)CC1", "hERG current change (%, negative = inhibition) at 10uM": 17.4}, {"smiles": "Cc1cc(=O)oc2cc(OCC(=O)N3CCN(c4ccc(F)cc4)CC3)ccc12", "hERG current change (%, negative = inhibition) at 10uM": -53}, {"smiles": "CSc1nc2nc3c(cc2c(=O)n1-c1ccccc1)COC(C)(C)C3", "hERG current change (%, negative = inhibition) at 10uM": -8.54}, {"smiles": "Cc1ccc(OCC(=O)NNC(=O)c2ccc(NC(=O)C3CC3)cc2)c(C)c1", "hERG current change (%, negative = inhibition) at 10uM": 16.7}, {"smiles": "Cc1nn2c(-c3cccc(NC(=O)c4ccco4)c3)nnc2c2ccccc12", "hERG current change (%, negative = inhibition) at 10uM": -5.38}, {"smiles": "CC(=O)Nc1ccc(N2C(=O)CC(c3ccccc3)CC2=O)cc1", "hERG current change (%, negative = inhibition) at 10uM": 9.64}, {"smiles": "COc1ccc(NC(=O)CC2C(=O)N(c3ccc(Cl)cc3)C(=S)N2CCc2ccncc2)cc1", "note": "(stereo not shown)", "hERG current change (%, negative = inhibition) at 10uM": -4.55}, {"smiles": "Cc1cc(/C(N)=N/OC(=O)Nc2cccc(C(F)(F)F)c2)no1", "hERG current change (%, negative = inhibition) at 10uM": -11.2}, {"smiles": "COc1ccc(CCNC(=O)CSc2nnc(-c3cccc(C)c3)o2)cc1OC", "hERG current change (%, negative = inhibition) at 10uM": -41.2}, {"smiles": "c1ccc(-n2ncc3c(NCCCN4CCOCC4)ncnc32)cc1", "hERG current change (%, negative = inhibition) at 10uM": -11}, {"smiles": "O=C1N(Cc2cccnc2)C[C@@H]2C[C@@H](c3ccccc3C#Cc3ccccc3)N3CCC[C@@]123", "hERG current change (%, negative = inhibition) at 10uM": -69.5}, {"smiles": "CC1CN(C2CC(C)(C)NC(C)(C)C2)CCC1=O", "note": "(stereo not shown)", "hERG current change (%, negative = inhibition) at 10uM": 2.16}, {"smiles": "C[C@H](C(=O)C=[N+]=[N-])N1C(=O)c2ccccc2C1=O", "hERG current change (%, negative = inhibition) at 10uM": 13.5}, {"smiles": "CC1=NC(=O)C(N=Nc2cccc(O)c2)N1c1ccccc1", "note": "(stereo not shown)", "hERG current change (%, negative = inhibition) at 10uM": 11.6}, {"smiles": "CCOC(=O)c1c(N=CN(C)C)c(C#N)n2c1CCC2", "hERG current change (%, negative = inhibition) at 10uM": 16.5}, {"smiles": "COc1ccccc1C(=O)NCC(=O)N/N=C/c1cc(Br)ccc1OCc1ccccc1", "hERG current change (%, negative = inhibition) at 10uM": 3.78}, {"smiles": "O=C(COC(=O)CSc1ccc(Br)cc1)NCc1ccco1", "hERG current change (%, negative = inhibition) at 10uM": 3.12}, {"smiles": "COc1cc(OC)cc(-c2c(C#Cc3ccsc3)c3cc(-c4cccc5[nH]ccc45)ccc3n2C)c1", "hERG current change (%, negative = inhibition) at 10uM": -0.172}, {"smiles": "CCC1(C)Cc2ccccc2C(=O)N1", "note": "(stereo not shown)", "hERG current change (%, negative = inhibition) at 10uM": 20}, {"smiles": "O=C(NCC1COc2ccccc2O1)c1ccc(-n2cncn2)c([N+](=O)[O-])c1", "note": "(stereo not shown)", "hERG current change (%, negative = inhibition) at 10uM": -45.3}, {"smiles": "COc1cc(CNc2ccccc2)c([N+](=O)[O-])cc1OC.O=C(O)C(=O)O", "hERG current change (%, negative = inhibition) at 10uM": -3.72}, {"smiles": "COC(=O)c1cc(NS(=O)(=O)c2ccc3c(c2)c(=O)n(C)c(=O)n3C)cc(C(=O)OC)c1", "hERG current change (%, negative = inhibition) at 10uM": 15.1}, {"smiles": "Cc1nn(CC(=O)Nc2ccc(N3CCOCC3)cc2)c(C)c1Cl", "hERG current change (%, negative = inhibition) at 10uM": 10.6}, {"smiles": "O=C(Cn1nnc(-c2ccc([N+](=O)[O-])cc2)n1)NNC(=O)c1ccccc1", "hERG current change (%, negative = inhibition) at 10uM": 15.2}, {"smiles": "O=C(Nc1ccn(Cc2ccccc2F)n1)c1ccc(COc2ccc(Br)cc2)cc1", "hERG current change (%, negative = inhibition) at 10uM": 1.39}, {"smiles": "CC(C)c1ccc(N(CC(=O)NCC2CCCO2)C(=O)CCC(=O)Nc2nccs2)cc1", "note": "(stereo not shown)", "hERG current change (%, negative = inhibition) at 10uM": -12.6}, {"smiles": "CCOC(=O)/C=C/[C@H]1CCc2cccc(Cl)c2O1", "hERG current change (%, negative = inhibition) at 10uM": 9.23}, {"smiles": "Cc1cc2sc3nc(=O)n(-c4ccccc4)c(=O)n3c2cc1C", "hERG current change (%, negative = inhibition) at 10uM": 11.7}, {"smiles": "CCOC(=O)CSc1nnc(CNC(=O)c2ccc(S(=O)(=O)N(C)C)cc2)n1C", "hERG current change (%, negative = inhibition) at 10uM": 2.15}, {"smiles": "CC(=O)c1c(C)[nH]c(C(=O)NCCc2cccc(C)c2)c1C", "hERG current change (%, negative = inhibition) at 10uM": 2.87}, {"smiles": "CN(C)CC(C)(C)CN=Cc1c(O)[nH]c2ccccc12", "hERG current change (%, negative = inhibition) at 10uM": -7.96}, {"smiles": "CCOC(=O)c1c(NC(=O)CSc2n[nH]c(N)n2)sc(CC)c1C", "hERG current change (%, negative = inhibition) at 10uM": 10.7}, {"smiles": "COc1cccc(N2CCN(C(=O)CCCCCNc3nc(=S)[nH]c4ccccc34)CC2)c1", "hERG current change (%, negative = inhibition) at 10uM": -27.2}, {"smiles": "Cc1nn(-c2ccccc2)c(N)c1C1(O)C(=O)Nc2ccc([N+](=O)[O-])cc21", "note": "(stereo not shown)", "hERG current change (%, negative = inhibition) at 10uM": 7.11}, {"smiles": "N#C/C(=C\\c1cccc(O)c1)c1nc2ccccc2o1", "hERG current change (%, negative = inhibition) at 10uM": -3.63}, {"smiles": "Cl.N=c1sccn1CC(=O)Nc1ccccc1-c1ccccc1", "hERG current change (%, negative = inhibition) at 10uM": -2.05}, {"smiles": "CCCNC(=O)c1ccc(N(Cc2ccccc2)S(C)(=O)=O)cc1", "hERG current change (%, negative = inhibition) at 10uM": -10.3}, {"smiles": "CC(C)Oc1ccc(C2CC(=O)N(Nc3ccc([N+](=O)[O-])cc3[N+](=O)[O-])C2=O)cc1", "note": "(stereo not shown)", "hERG current change (%, negative = inhibition) at 10uM": -15.6}, {"smiles": "Cc1cc2nc(C3CCCN(C(=S)Nc4ccccc4C)C3)[nH]c2cc1C", "note": "(stereo not shown)", "hERG current change (%, negative = inhibition) at 10uM": -0.115}, {"smiles": "Cc1cc(C)n(-c2nc3c(c(=O)[nH]c(=O)n3C)n2CC(O)COc2ccccc2C)n1", "note": "(stereo not shown)", "hERG current change (%, negative = inhibition) at 10uM": -31.9}, {"smiles": "Cc1cccc(CCNS(=O)(=O)c2cnc[nH]2)c1", "hERG current change (%, negative = inhibition) at 10uM": 4.35}, {"smiles": "CC(C)Sc1n[nH]c(=O)n1-c1cccc(C(F)(F)F)c1", "hERG current change (%, negative = inhibition) at 10uM": 17.1}, {"smiles": "CCN(CC)C(=O)C1CC(c2ccc(OC)cc2)=NO1", "note": "(stereo not shown)", "hERG current change (%, negative = inhibition) at 10uM": 1.85}, {"smiles": "CCc1cccc(C)c1NC(=S)N(CCCN1CCN(C)CC1)Cc1cccs1", "hERG current change (%, negative = inhibition) at 10uM": -30.9}, {"smiles": "Cl.N=c1sccn1CC(=O)NCCc1ccc(Cl)cc1Cl", "hERG current change (%, negative = inhibition) at 10uM": -36}]}]}
